The values below come from PMC4336329 (PLoS ONE, 2015).

In all, about 310,000 compounds went through this assay and about 14,000 (4.5%) showed an effect of 50% or more. Effects have a minus sign here. Some of the results follow.
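Note: peak tail current of the secondary pulse compared with the same well before compound.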

For this experiment, the target named is human ether-à-go-go-related gene (hERG) potassium channel (human, UniProt Q12809). Description: primary screen, population patch clamp on CHO cells stably expressing hERG.
Sequence of human ether-à-go-go-related gene (hERG) potassium channel (Q12809 whole entry, looked up): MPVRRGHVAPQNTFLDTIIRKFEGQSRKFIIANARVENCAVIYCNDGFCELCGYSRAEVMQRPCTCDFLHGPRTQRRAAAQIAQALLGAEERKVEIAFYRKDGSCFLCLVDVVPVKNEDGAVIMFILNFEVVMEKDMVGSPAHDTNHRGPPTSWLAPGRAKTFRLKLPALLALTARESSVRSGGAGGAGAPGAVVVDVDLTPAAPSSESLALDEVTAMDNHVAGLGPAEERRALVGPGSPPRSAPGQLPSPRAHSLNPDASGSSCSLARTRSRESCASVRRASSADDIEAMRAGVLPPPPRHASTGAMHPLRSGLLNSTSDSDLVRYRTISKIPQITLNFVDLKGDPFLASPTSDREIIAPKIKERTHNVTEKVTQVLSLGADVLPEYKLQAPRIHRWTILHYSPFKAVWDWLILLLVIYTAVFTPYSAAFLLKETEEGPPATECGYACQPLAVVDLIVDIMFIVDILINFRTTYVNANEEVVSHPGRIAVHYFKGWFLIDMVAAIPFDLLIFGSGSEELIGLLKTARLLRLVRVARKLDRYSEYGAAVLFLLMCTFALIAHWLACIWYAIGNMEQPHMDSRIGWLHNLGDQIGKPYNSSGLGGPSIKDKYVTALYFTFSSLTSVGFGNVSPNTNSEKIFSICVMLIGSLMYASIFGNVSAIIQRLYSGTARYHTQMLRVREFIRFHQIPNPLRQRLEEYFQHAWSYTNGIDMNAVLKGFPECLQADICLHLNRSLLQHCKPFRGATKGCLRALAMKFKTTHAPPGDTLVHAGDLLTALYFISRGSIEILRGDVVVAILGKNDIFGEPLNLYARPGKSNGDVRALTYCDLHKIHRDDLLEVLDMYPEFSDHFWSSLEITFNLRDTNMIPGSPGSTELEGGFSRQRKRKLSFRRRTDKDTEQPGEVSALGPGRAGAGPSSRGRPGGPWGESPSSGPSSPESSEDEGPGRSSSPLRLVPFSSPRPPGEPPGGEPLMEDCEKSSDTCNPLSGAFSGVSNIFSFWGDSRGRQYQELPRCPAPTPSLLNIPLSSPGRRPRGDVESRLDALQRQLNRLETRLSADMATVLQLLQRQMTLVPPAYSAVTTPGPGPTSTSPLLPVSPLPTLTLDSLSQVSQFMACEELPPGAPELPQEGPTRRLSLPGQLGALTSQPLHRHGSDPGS
With `Cc1ccc2c(c1)N(CC(=O)N1CCCCCC1)C(=O)CO2`, the “hERG current change (%, negative = inhibition) at 10uM” value is given as -19.7%. For the compound `O=C1c2cccc3cccc(c23)N1CN1CCN(c2ccccn2)CC1`, the “hERG current change (%, negative = inhibition) at 10uM” value is 6.61%.

Turning to `Cc1cc(OC(C)C(=O)NC2CC(C)(C)NC(C)(C)C2)c2c(C)cc(=O)oc2c1` (centres unmarked), the “hERG current change (%, negative = inhibition) at 10uM” value stood at 12.9%.

In the case of `COc1ccc(N2CCN(C(=O)CN(c3ccc(OC)cc3)S(=O)(=O)c3ccccc3)CC2)cc1`, the “hERG current change (%, negative = inhibition) at 10uM” value is recorded as -22.7%. In the case of `Cc1ccc(CCCOC(=O)CN2CCCCC2)cc1`, the “hERG current change (%, negative = inhibition) at 10uM” value was 1.34%.

Turning to `Cc1ccc(S(=O)(=O)N2CCC(=O)N(CCOCc3cccc(C(F)(F)F)c3)CC2)cc1`, the “hERG current change (%, negative = inhibition) at 10uM” value is on record as -44.2%. Consider `Cc1cc(/C=C2\NC(=S)N(C)C2=O)ccc1N1CCCC1`, for which the “hERG current change (%, negative = inhibition) at 10uM” value worked out at 18.3%.

Consider `COC(=O)CSc1nnc(COc2cccc3ccccc23)o1`, for which the “hERG current change (%, negative = inhibition) at 10uM” value amounted to 13.6%. For the compound `Cc1cccc(N2C(=O)CC(Sc3nnc(C)s3)C2=O)c1` (centres unmarked), the “hERG current change (%, negative = inhibition) at 10uM” value is listed as 14.4%. Then `Cc1cc(N(C)C)c(C#N)c(N2CCCCC2)n1`, with -4.92%; and `c1ccc(CSc2ccc(-c3ccc4c(c3)OCO4)nn2)cc1`, with -4%; and `COc1cc(NC(=O)CN2CCN(c3ccccn3)CC2)cc(OC)c1OC`, with 3.76%.

With `CSC1=NCCCN1C(=O)c1c(-c2ccccc2Cl)noc1C`, the “hERG current change (%, negative = inhibition) at 10uM” value was -8.19%. In the case of `Cc1ccc(NC(=O)C2CCCN2C(=O)NC2CCCCC2)cc1C` (centres unmarked), the “hERG current change (%, negative = inhibition) at 10uM” value is given as 5.84%. For the compound `Cc1ccc(SCC(=O)NC2CC3CCC(C2)N3C)cc1` (centres unmarked), the “hERG current change (%, negative = inhibition) at 10uM” value amounted to 4.2%. Turning to `Cc1c([C@H]2[C@@H](CC#N)C2(C)C)c2ccccc2n1C`, the “hERG current change (%, negative = inhibition) at 10uM” value is -10.4%. The value for `O=C(CCc1ccccc1)Nc1nc2n(n1)C(c1ccc(Cl)cc1)CC(=O)N2` (centres unmarked) was 9.38%; that for `Cc1nnc(Nc2ccc(C(=O)NCCO)cc2)c2ccccc12` was -0.987%; that for `COCCNCCCCOc1c(Cl)cc(C)cc1Br` was -41.5%.

Take `COc1ccc(-c2c[n+]3c(n2-c2ccc(C)cc2)CCCCC3)cc1.[Br-]`: the “hERG current change (%, negative = inhibition) at 10uM” value was -48.2%. On to `CCCC(=O)N=c1sc2c(OC)ccc(OC)c2n1C`, for which the “hERG current change (%, negative = inhibition) at 10uM” value worked out at 1.74%.

With `COc1ccc(C2CC(=O)Oc3c2c(=O)n(C)c2ccccc32)c(OC)c1OC` (centres unmarked), the “hERG current change (%, negative = inhibition) at 10uM” value came out at 17.5%.

Turning to `O=C(c1ccc[nH]c1=S)N1CCN(S(=O)(=O)c2ccc(Br)cc2Cl)CC1`, the “hERG current change (%, negative = inhibition) at 10uM” value is -3.65%. Take `Cc1nc2c(c(=O)c3ccccc3n2C)c(=O)n1-c1ccc(F)cc1`: the “hERG current change (%, negative = inhibition) at 10uM” value is given as -12.6%. Consider `COCCNC(=O)C(c1ccc(F)cc1)N(CCOC)C(=O)CCC(=O)Nc1nccs1` (centres unmarked), for which the “hERG current change (%, negative = inhibition) at 10uM” value stood at 0.0239%.

Turning to `Cc1cccn2c(=O)c(C(=O)NCCCN3CCCCC3C)c(O)nc12` (centres unmarked), the “hERG current change (%, negative = inhibition) at 10uM” value was -2.22%. The value for `COc1ccc(/C(N)=N/OC(=O)c2cccs2)cc1` was 15.6%; that for `CCN(CC)C(=O)CSc1nnc(COc2ccccc2)n1CC` was 2.69%. Consider `CC(=O)c1ccc(NC(=O)C2=CC(c3ccco3)=NS(=O)(=O)N2C)cc1`, for which the “hERG current change (%, negative = inhibition) at 10uM” value is listed as -7.75%.

As for `COc1ccc(S(=O)(=O)NCC(c2cccnc2)N2CCN(Cc3ccccc3)CC2)cc1C` (centres unmarked), the “hERG current change (%, negative = inhibition) at 10uM” value is recorded as -79.6%. In the case of `COc1ccc(-n2c(O)c(C(C)=NCc3ccco3)c(=O)[nH]c2=O)cc1`, the “hERG current change (%, negative = inhibition) at 10uM” value is listed as -3.34%. Turning to `COc1ccccc1CNC(=O)/C=C/c1cc2c(cc1Br)OCO2`, the “hERG current change (%, negative = inhibition) at 10uM” value was found to be 19.8%. As for `CC(C)CCc1c(O)nc(SCC(C)C)[nH]c1=O`, the “hERG current change (%, negative = inhibition) at 10uM” value is listed as -14.2%. For the compound `O=C(Cn1cc(C=C2C(=O)NC(=O)NC2=O)c2ccccc21)NCC1CCCO1` (centres unmarked), the “hERG current change (%, negative = inhibition) at 10uM” value is given as 17.2%.

For `COc1ccc(N(CC(=O)Nc2cccc(C)c2C)S(=O)(=O)c2c(C)[nH]c(=O)[nH]c2=O)cc1`, the “hERG current change (%, negative = inhibition) at 10uM” value is on record as 1.67%. For the compound `CCC12CN(C(=O)c3ccc(C)cc3)CC(CC)(CN(C(=O)c3ccc(C)cc3)C1)C2=O`, the “hERG current change (%, negative = inhibition) at 10uM” value is -33.3%. The value for `O=C(NCCc1ccco1)C(=O)NCC1OCCCN1S(=O)(=O)c1ccccc1` (centres unmarked) was -1.76%; that for `O=C(Nc1cc(C(F)(F)F)ccc1-n1cncn1)c1ccc(F)cc1Cl` was -38.3%; that for `O=C(COC(=O)c1cnccn1)NCc1ccc2c(c1)OCO2` was 9.57%.

Turning to `CC(C)c1ccccc1NC(=O)CNCCc1ccc(C(F)(F)F)cc1.O=C(O)C(=O)O`, the “hERG current change (%, negative = inhibition) at 10uM” value is -48.1%.

Consider `COc1ccc(C)cc1NC(=S)Nc1ccccc1SC`, for which the “hERG current change (%, negative = inhibition) at 10uM” value is listed as -4.13%.

With `O=C(/C=C/c1ccc(Cl)c([N+](=O)[O-])c1)c1ccc(O)cc1`, the “hERG current change (%, negative = inhibition) at 10uM” value is -1.19%. Then `CC(=O)Oc1ccc(-c2cccc(C(=O)Oc3ccccc3)c2)cc1`, with 16.4%; and `COc1cc(OC)cc(C(=O)NCC(=O)OCC(=O)NC(C)(C)C)c1`, with 8.34%.
